US20210102215A1, “TREATMENT AND PREVENTION OF VIRAL INFECTION” (priority 2016, published 2021)

Tested on: HCVpp expressing patient derived envelope glycoproteins
Assay: Entry of HCVpp expressing patient derived envelope glycoproteins into Huh-7 cells
Settings: Huh-7, 20 μM, 24 h, infectivity 24 h later (FIG. 9)
Description: To evaluate the activity of REV-ERB agonists against a wider spectrum of HCV strains, we used lentiviral pseudotypes expressing primary envelope glycoproteins cloned from patients with acute HCV infection. […] Luciferase reporter pseudoparticles expressing HCV envelope glycoproteins (HCVpp), or no-glycoprotein controls, were generated in 293T cells using a plasmid encoding a HIV provirus expressing luciferase and viral envelope glycoproteins from lab strains H77 and 1A38 and HCV patient derived clones.

SMILES	HCV entry of lab strain and patient derived HCVpp
CC(C)(C)OC(=O)CN(Cc1ccc(Cl)cc1)Cc1ccc([N+](=O)[O-])s1 [GSK4112]	inhibit HCV entry not only of lab strains but also a wide range of patient derived HCV
CCOC(=O)N1CCC(CN(Cc2ccc(Cl)cc2)Cc2ccc([N+](=O)[O-])s2)C1 (centres unmarked) [SR9009]	inhibit HCV entry not only of lab strains but also a wide range of patient derived HCV
